Drawing on patent US20260137703A1, “2-AMINO-PYRIDO[2,3-D]PYRIMIDIN-7(8H)-ONE AND 7-AMINO-1-PYRIMIDO[4,5-D]PYRIMIDIN-2(1 H)-ONE DERIVATIVES AS EGFR INHIBITORS FOR THE TREATMENT OF CANCER” (Cancer Research Technology Limited, priority 2022, published 2026), this text covers IC50 for 28 molecules.

Counter-ions that a name gives are not always drawn. Bounds are passed on as bounds.

The assay concerns the target CtermHisTag-mEGFR Triple Mutant (R797S, L858R, T790M) (Homo sapiens, UniProt P00533, C797S/L858R/T790M). The assay is described as follows: TR-FRET probe displacement, EGFR triple mutant. The settings on record: 1.25 nM EGFR, 100 nM probe, 30 mins room temperature. (Time-resolved FRET reads energy transfer from a long-lived donor to a nearby acceptor.)
What is called IC50 is the concentration that gives 50% inhibition. A low value points to inhibition by little substance. `C#Cc1cc(=O)n([C@@H]2CCCN(C(=O)CC)C2)c2nc(Nc3ccc(N(C)CCN(C)C)cc3)ncc12` [Example 77, (R)-2-((4-((2-(Dimethylamino)ethyl)(methyl)amino)phenyl)amino)-5-ethynyl-8-(1-propionylpiperidin-3-yl)pyrido[2,3-d]pyrimidin-7(8H)-one trifluoroacetic acid salt] gave a half-maximal inhibitory concentration (IC50) of 20 to 100 nM. The figure for `C#Cc1cc(=O)n(C2CCCC2)c2nc(Nc3ccc(N4CCN(C)CC4)cc3)ncc12` [Example 78, 8-cyclopentyl-5-ethynyl-2-((4-(4-methylpiperazin-1-yl)phenyl)amino)pyrido[2,3-d]pyrimidin-7(8H)-one] is < 20 nM. Under `C#Cc1cc(=O)n([C@H]2CC[C@@H](NC(C)=O)CC2)c2nc(Nc3ccc(N(C)CCN(C)C)cc3)ncc12` [Example 79, N-[(1s,4s)-4-{2-[(4-{[2-(Dimethylamino)ethyl](methyl)amino}phenyl)amino]-5-ethynyl-7-oxopyrido[2,3-d]pyrimidin-8-yl}cyclohexyl]acetamide] stands < 20 nM; under `C#Cc1cc(=O)n([C@H]2CC[C@@H](CO)CC2)c2nc(Nc3ccc(N(C)CCN(C)C)cc3)ncc12` [Example 80, 2-[(4-{[2-(Dimethylamino)ethyl](methyl)amino}phenyl)amino]-5-ethynyl-8-[(1s,4s)-4-(hydroxymethyl)cyclohexyl]pyrido[2,3-d]pyrimidin-7-one], < 20 nM; under `C#Cc1cc(=O)n([C@H]2CC[C@@H](NC(=O)CC)CC2)c2nc(Nc3ccc(N4CCN(C)CC4)cc3)ncc12` [Example 81, N-[(1s,4s)-4-(5-Ethynyl-2-{[4-(4-methylpiperazin-1-yl)phenyl]amino}-7-oxopyrido[2,3-d]pyrimidin-8-yl)cyclohexyl]propanamide], < 20 nM. Under `C#Cc1cc(=O)n([C@H]2CC[C@@H](NC(=O)C(C)C)CC2)c2nc(Nc3ccc(N4CCN(C)CC4)cc3)ncc12` [Example 82, 2-Methyl-N-[(1s,4s)-4-(5-ethynyl-2-{[4-(4-methylpiperazin-1-yl)phenyl]amino}-7-oxopyrido[2,3-d]pyrimidin-8-yl)cyclohexyl]propanamide] stands < 20 nM. `C#Cc1cc(=O)n(C(C)C)c2nc(Nc3ccccc3OC)ncc12` [Example 83, 5-Ethynyl-8-isopropyl-2-[(2-methoxyphenyl)amino]pyrido[2,3-d]pyrimidin-7-one] gave an IC50 of 100 to 1000 nM. Turning to `C#Cc1cc(=O)n(-c2ccc(OC)cc2)c2nc(Nc3ccccc3OC)ncc12` [Example 84, 5-ethynyl-8-(4-methoxyphenyl)-2-[(2-methoxyphenyl)amino]pyrido[2,3-d]pyrimidin-7-one], the IC50 fell in the range of 20 to 100 nM. The figure for `C#Cc1cc(=O)n(-c2cccc(NC(=O)C=C)c2)c2nc(Nc3ccccc3OC)ncc12` [Example 85, N-(3-(5-Ethynyl-2-((2-methoxyphenyl)amino)-7-oxopyrido[2,3-d]pyrimidin-8(7H)-yl)phenyl)acrylamide] is 20 to 100 nM; for `C#Cc1cc(=O)n(-c2ccc(OC)cc2OC)c2nc(Nc3ccc(N(C)CCN(C)C)cc3)ncc12` [Example 86, 8-(2,4-Dimethoxyphenyl)-2-[(4-{[2-(dimethylamino)ethyl](methyl)amino}phenyl)amino]-5-ethynylpyrido[2,3-d]pyrimidin-7-one] it is < 20 nM; for `C#Cc1cc(=O)n([C@H]2CC[C@H](NC(C)=O)CC2)c2nc(Nc3ccc(N4CCN(C)CC4)cc3)ncc12` [Example 87, N-[(1r,4r)-4-(5-Ethynyl-2-{[4-(4-methylpiperazin-1-yl)phenyl]amino}-7-oxopyrido[2,3-d]pyrimidin-8-yl)cyclohexyl]acetamide] it is < 20 nM.

For `C#Cc1cc(=O)n(-c2ccc(NC(=O)C=C)cc2)c2nc(Nc3ccccc3OC)ncc12` [Example 88, N-(4-(5-Ethynyl-2-((2-methoxyphenyl)amino)-7-oxopyrido[2,3-d]pyrimidin-8(7H)-yl)phenyl)acrylamide], the IC50 was in the range of 100 to 1000 nM. The figure for `C#Cc1cc(=O)n([C@H]2CC[C@H](NC(=O)c3ccnnc3)CC2)c2nc(Nc3ccc(N4CCN(C)CC4)cc3)ncc12` [Example 89, N-[(1r,4r)-4-(5-Ethynyl-2-{[4-(4-methylpiperazin-1-yl)phenyl]amino}-7-oxopyrido[2,3-d]pyrimidin-8-yl)cyclohexyl]pyridazine-4-carboxamide] is < 20 nM; for `C#Cc1cc(=O)n([C@H]2CC[C@@H](NC(=O)CN(C)C)CC2)c2nc(Nc3ccccc3OC)ncc12` [Example 90, 2-(Dimethylamino)-N-[(1s,4s)-4-{5-ethynyl-2-[(2-methoxyphenyl)amino]-7-oxopyrido[2,3-d]pyrimidin-8-yl}cyclohexyl]acetamide] it is 20 to 100 nM; for `C#Cc1cc(=O)n([C@H]2CC[C@@H](NC(=O)Cc3cn[nH]c3)CC2)c2nc(Nc3ccc(N4CCN(C)CC4)cc3)ncc12` [Example 91, 2-(1H-Pyrazol-4-yl)-N-[(1s,4s)-4-(5-ethynyl-2-{[4-(4-methylpiperazin-1-yl)phenyl]amino}-7-oxopyrido[2,3-d]pyrimidin-8-yl)cyclohexyl]acetamide] it is < 20 nM. The figure for `C#Cc1cc(=O)n([C@H]2CC[C@@H](NC(=O)CCC(=O)OC)CC2)c2nc(Nc3ccc(N4CCN(C)CC4)cc3)ncc12` [Example 92, Methyl 4-(((1s,4s)-4-(5-ethynyl-2-((4-(4-methylpiperazin-1-yl)phenyl)amino)-7-oxopyrido[2,3-d]pyrimidin-8(7H)-yl)cyclohexyl)amino)-4-oxobutanoate] is < 20 nM.

As to `C#Cc1cc(=O)n([C@H]2CC[C@@H](NC(=O)CCC(=O)N(C)C)CC2)c2nc(Nc3ccc(N4CCN(C)CC4)cc3)ncc12` [Example 93, N,N-Dimethyl-N′-[(1s,4s)-4-(5-ethynyl-2-{[4-(4-methylpiperazin-1-yl)phenyl]amino}-7-oxopyrido[2,3-d]pyrimidin-8-yl)cyclohexyl]succinamide], the 50% inhibitory concentration (IC50) was < 20 nM. For the molecule `C#Cc1cc(=O)n([C@H]2CC[C@@H](NC(=O)CC(=O)NC)CC2)c2nc(Nc3ccc(N4CCN(C)CC4)cc3)ncc12` [Example 94, N-Methyl-N′-[(1s,4s)-4-(5-ethynyl-2-{[4-(4-methylpiperazin-1-yl)phenyl]amino}-7-oxopyrido[2,3-d]pyrimidin-8-yl)cyclohexyl]propanediamide], the IC50 is < 20 nM. Under `C#Cc1cc(=O)n([C@H]2CC[C@@H](NC(=O)CC(=O)N(C)C)CC2)c2nc(Nc3ccc(N4CCN(C)CC4)cc3)ncc12` [Example 95, N,N-Dimethyl-N′-[(1s,4s)-4-(5-ethynyl-2-{[4-(4-methylpiperazin-1-yl)phenyl]amino}-7-oxopyrido[2,3-d]pyrimidin-8-yl)cyclohexyl]propanediamide] stands < 20 nM; under `C#Cc1cc(=O)n([C@H]2CC[C@@H](NC(=O)CCN(C)C)CC2)c2nc(Nc3ccc(N4CCN(C)CC4)cc3)ncc12` [Example 96, 3-(Dimethylamino)-N-[(1s,4s)-4-(5-ethynyl-2-{[4-(4-methylpiperazin-1-yl)phenyl]amino}-7-oxopyrido[2,3-d]pyrimidin-8-yl)cyclohexyl]propanamide], < 20 nM; under `C#Cc1cc(=O)n([C@H]2CC[C@@H](NC(=O)CCCN(C)C)CC2)c2nc(Nc3ccc(N4CCN(C)CC4)cc3)ncc12` [Example 97, 4-(Dimethylamino)-N-[(1s,4s)-4-(5-ethynyl-2-{[4-(4-methylpiperazin-1-yl)phenyl]amino}-7-oxopyrido[2,3-d]pyrimidin-8-yl)cyclohexyl]butanamide], < 20 nM.

For `C#Cc1cc(=O)n([C@H]2CC[C@@H](NC(=O)CCC(=O)NC)CC2)c2nc(Nc3ccc(N4CCN(C)CC4)cc3)ncc12` [Example 98, N-Methyl-N′-[(1s,4s)-4-(5-ethynyl-2-{[4-(4-methylpiperazin-1-yl)phenyl]amino}-7-oxopyrido[2,3-d]pyrimidin-8-yl)cyclohexyl]succinamide], the half-maximal inhibitory concentration (IC50) is < 20 nM. Consider `C#Cc1cc(=O)n([C@H]2CC[C@@H](NC(=O)CC(=O)O)CC2)c2nc(Nc3ccc(N4CCN(C)CC4)cc3)ncc12` [Example 99, 2-{[(1s,4s)-4-(5-Ethynyl-2-{[4-(4-methylpiperazin-1-yl)phenyl]amino}-7-oxopyrido[2,3-d]pyrimidin-8-yl)cyclohexyl]carbamoyl}acetic acid], for which the IC50 is < 20 nM.

With `C#Cc1cc(=O)n([C@H]2CC[C@@H](NC(=O)CN(C)C)CC2)c2nc(Nc3ccc(N4CCN(C)CC4)cc3)ncc12` [Example 100, 2-(Dimethylamino)-N-[(1s,4s)-4-(5-ethynyl-2-{[4-(4-methylpiperazin-1-yl)phenyl]amino}-7-oxopyrido[2,3-d]pyrimidin-8-yl)cyclohexyl]acetamide], the 50% inhibitory concentration (IC50) was 20 to 100 nM. The molecule `C#Cc1cc(=O)n([C@H]2CC[C@@H](N(C)C(=O)CN(C)C)CC2)c2nc(Nc3ccccc3OC)ncc12` [Example 101, 2-(Dimethylamino)-N-methyl-N-[(1s,4s)-4-{5-ethynyl-2-[(2-methoxyphenyl)amino]-7-oxopyrido[2,3-d]pyrimidin-8-yl}cyclohexyl]acetamide] registered a half-inhibitory concentration (IC50) of 1000 to 50000 nM. As for `C#Cc1c(C)c(=O)n([C@H]2CC[C@H](NC(C)=O)CC2)c2nc(Nc3ccc(N4CCN(C)CC4)cc3)ncc12` [Example 102, N-[(1r,4r)-4-(5-Ethynyl-6-methyl-2-{[4-(4-methylpiperazin-1-yl)phenyl]amino}-7-oxopyrido[2,3-d]pyrimidin-8-yl)cyclohexyl]acetamide], the 50% inhibitory concentration (IC50) was in the range of 100 to 1000 nM.

In turn, `C#Cc1c(C)c(=O)n([C@H]2CC[C@@H](NC(C)=O)CC2)c2nc(Nc3ccc(N4CCN(C)CC4)cc3)ncc12` [Example 103, N-[(1s,4s)-4-(5-ethynyl-6-methyl-2-{[4-(4-methylpiperazin-1-yl)phenyl]amino}-7-oxopyrido[2,3-d]pyrimidin-8-yl)cyclohexyl]acetamide] came in with an IC50 of 20 to 100 nM. The figure for `C#Cc1cc(=O)n(C2CCNC2=O)c2nc(Nc3ccc(N4CCN(C)CC4)cc3)ncc12` (stereo not shown) [Example 104, 3-(5-ethynyl-2-{[4-(4-methylpiperazin-1-yl)phenyl]amino}-7-oxopyrido[2,3-d]pyrimidin-8-yl)pyrrolidin-2-one] is 100 to 1000 nM.
